Out of some 310,000 compounds screened, about 14,000 (4.5%) showed an effect of 50% or more. Effects have a minus sign here. Some of the results follow.
The compounds below were run against human ether-à-go-go-related gene (hERG) potassium channel (human, UniProt Q12809) (assay: primary screen, population patch clamp on CHO cells stably expressing hERG).
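Note: peak tail current of the secondary pulse compared with the same well before compound.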

human ether-à-go-go-related gene (hERG) potassium channel, sequence (Q12809 whole entry, looked up): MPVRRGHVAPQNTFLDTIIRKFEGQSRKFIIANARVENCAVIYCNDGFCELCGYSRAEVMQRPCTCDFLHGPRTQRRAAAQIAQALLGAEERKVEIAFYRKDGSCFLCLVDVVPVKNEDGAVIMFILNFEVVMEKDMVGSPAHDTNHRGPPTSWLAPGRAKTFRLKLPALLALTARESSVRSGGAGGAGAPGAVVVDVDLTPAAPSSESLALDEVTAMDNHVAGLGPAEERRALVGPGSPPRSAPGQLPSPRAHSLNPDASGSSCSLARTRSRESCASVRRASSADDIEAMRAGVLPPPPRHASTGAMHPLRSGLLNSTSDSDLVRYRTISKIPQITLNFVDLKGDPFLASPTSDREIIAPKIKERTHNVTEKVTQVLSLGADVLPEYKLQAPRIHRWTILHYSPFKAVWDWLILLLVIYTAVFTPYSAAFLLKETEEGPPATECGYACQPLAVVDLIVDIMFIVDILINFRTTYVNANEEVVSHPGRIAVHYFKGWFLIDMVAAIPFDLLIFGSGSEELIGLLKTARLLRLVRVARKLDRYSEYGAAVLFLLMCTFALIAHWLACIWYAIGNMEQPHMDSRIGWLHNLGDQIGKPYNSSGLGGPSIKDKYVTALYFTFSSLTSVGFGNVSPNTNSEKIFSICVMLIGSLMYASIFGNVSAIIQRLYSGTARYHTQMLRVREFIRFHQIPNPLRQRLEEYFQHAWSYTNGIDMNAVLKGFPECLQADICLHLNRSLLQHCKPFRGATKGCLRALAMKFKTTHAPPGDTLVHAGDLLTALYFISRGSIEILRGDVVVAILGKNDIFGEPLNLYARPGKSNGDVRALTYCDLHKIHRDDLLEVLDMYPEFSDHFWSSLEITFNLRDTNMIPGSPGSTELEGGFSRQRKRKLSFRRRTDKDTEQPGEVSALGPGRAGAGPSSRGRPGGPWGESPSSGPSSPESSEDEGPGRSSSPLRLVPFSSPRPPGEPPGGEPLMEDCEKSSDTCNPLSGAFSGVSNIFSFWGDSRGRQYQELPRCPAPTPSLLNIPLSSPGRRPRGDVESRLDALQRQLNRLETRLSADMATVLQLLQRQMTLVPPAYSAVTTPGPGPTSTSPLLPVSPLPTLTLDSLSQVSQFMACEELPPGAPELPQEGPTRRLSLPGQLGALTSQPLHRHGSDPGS

Row | Structure (SMILES) | hERG current change (%, negative = inhibition) at 10uM
1 | CCCNC(=O)Cn1c(=O)/c(=C\c2ccc(-c3ccc([N+](=O)[O-])cc3)o2)s/c1=C\C(=O)C(C)(C)C | 1.64%
2 | Cc1cc(Nc2ccc(C(=O)N3CCCCC3)cc2)c2cccc(C)c2n1 | -23.5%
3 | Cc1ccc(NC2CCCN(C(=O)c3cnc4ccccn4c3=O)C2)cc1C (stereo not drawn) | -3.33%
4 | COc1ccc(C(=O)N2CCN(S(=O)(=O)c3ccccc3)CC2)c(OC)c1 | -25.4%
5 | Cc1ccc2c(C(=O)CN3CCSCC3)c(C)[nH]c2c1 | 2.57%
6 | CC(C)C1COC(c2cccn2Cc2ccccc2Cl)=N1 (stereo not drawn) | 18.6%
7 | O=C(NC1CCCC1)C1CCC(CNS(=O)(=O)c2ccccc2)CC1 (stereo not drawn) | 14.8%
8 | C=CCn1c(COc2ccccc2)nnc1SC(C)C(=O)N/N=C/c1cc(Cl)ccc1O (stereo not drawn) | 0.335%
9 | COc1ccccc1NC(=O)Nc1nc(CC(=O)NCc2cccnc2)cs1 | -13.3%
10 | NS(=O)(=O)c1ccc2c(c1)oc(=O)c1cc(S(N)(=O)=O)ccc12 | 9.35%
11 | CC(=O)c1c(C)[nH]c(C(=O)Nc2cc(C)cc(C)c2)c1C | -1.09%
12 | COC1(NC(=O)c2ccccc2)C(C)=CC(=O)C=C1C | 4.34%
13 | Cc1ccc(C(=O)NCc2ccccn2)c(Cl)c1 | 19.7%
14 | O=C(CNC(=O)c1ccccc1)OCC(=O)N1N=C(c2ccc(Cl)cc2)CC1c1ccco1 (stereo not drawn) | -72.5%
15 | COc1cc2c(=O)n(CC3CCCO3)c(=O)n(CC(=O)Nc3cccc(Cl)c3)c2cc1OC (stereo not drawn) | 27.3%
16 | CCN(CC)c1nc(-c2ccc(Cl)cc2)cc(C(F)(F)F)c1C#N | 4.87%
17 | O=C(c1cccc([N+](=O)[O-])c1)N1CCN(c2cccc(Cl)c2)CC1 | -57.4%
18 | N#CCCn1cc(C(=O)N2CCCCC2)c(-c2ccc([N+](=O)[O-])cc2)n1 | 8.61%
19 | CC(=O)c1cccc(NC(=O)c2ccc(C)c(S(=O)(=O)N3CCOCC3)c2)c1 | -3.6%
20 | Cc1ccccc1CSCCNC(=O)c1ccc(Cl)c(S(=O)(=O)N2CCOCC2)c1 | -42.2%
21 | CC1(C)C2CCC1(CS(=O)(=O)NCCc1c[nH]c3ccccc13)C(=O)C2 (stereo not drawn) | -0.243%
22 | COc1ccc(S(=O)(=O)N2Cc3ccccc3CC2C(=O)Nc2ccc(O)cc2)cc1OC (stereo not drawn) | -14.7%

Row | Structure (SMILES) | hERG current change (%, negative = inhibition) at 10uM
23 | Cc1ccc(C)c(S(=O)(=O)Nc2nc3ccc(S(N)(=O)=O)cc3s2)c1 | 11.9%
24 | CC(=O)Nc1cc(C(=O)N2CCN(C)CC2)ccc1Sc1ccc(C)cc1 | -13.5%
25 | COc1ccc(N2Cc3ccccc3C2=O)cc1 | 16.2%
26 | Cn1nccc1C(=O)Nc1ccn(C23CC4CC(CC(C4)C2)C3)n1 | -11.6%
27 | CCN(CC(=O)Nc1cc(S(=O)(=O)N2CCOCC2)ccc1C)Cc1ccccc1 | -31.1%
28 | Cn1c(NCc2ccccc2Cl)nc2ccccc21 | -1.9%
29 | CC(Sc1nnc(CN2CCCC2)n1Cc1ccccc1)C(=O)Nc1ccc(F)cc1 (stereo not drawn) | -61.4%
30 | Cc1nc2ncc(Br)cc2[nH]1 | 16.8%
31 | O=C(Cc1coc2cc3c(cc12)CCC3)NCC1(N2CCCCC2)CCCCC1 | -76.9%
32 | Cc1ccc(N2CC(C(=O)Nc3nccs3)CC2=O)cc1Cl (stereo not drawn) | -5.33%
33 | CCNc1ccc(C(=O)OCC(=O)NC(C)c2ccccc2)cc1[N+](=O)[O-] (stereo not drawn) | 6.5%
34 | CCOCCCNC(=S)N1CCN(c2nc(-c3ccccc3)cs2)CC1 | 1.6%
35 | CCN(C(=O)Cn1nnc(-c2ccccc2)n1)C1CCS(=O)(=O)C1 (stereo not drawn) | 4.55%
36 | CCN1CCn2c1nc(N1CCOCC1)nc2=O | 9.86%
37 | COc1ccc(OC)c(N(CC(=O)Nc2ccccc2F)S(=O)(=O)c2ccccc2)c1 | -2.15%
38 | COc1cccc(NC(=O)CN(C)C(=O)CCCc2c[nH]c3ccccc23)c1 | -11.9%
39 | CCN1C(=O)C(CC(=O)Nc2ccc(Br)cc2)N(CCCc2ccccc2)C1=S (stereo not drawn) | 12.6%
40 | CCc1c(C)c(C#N)c2nc3ccccc3n2c1NCCN(C)C | -5.68%
41 | Cc1ccc(S(=O)(=O)N[C@@H](C)C(=O)N2CCC(C(=O)N3CCC[C@H]3C(=O)O)CC2)cc1 | 15.5%
42 | COCCNC(=O)c1nc2c(nnn2Cc2cc(C)ccc2C)c(=O)[nH]1 | 0.206%
43 | CCC(=O)NCCCc1nc(-c2ccccc2)no1 | 5.95%
44 | O=C(Nc1ccccc1)OCCNC(=O)c1cccc(Cl)c1 | 1.04%

Row | Structure (SMILES) | hERG current change (%, negative = inhibition) at 10uM
45 | O=C(CCCn1c(=O)[nH]c2ccccc2c1=O)NCCSCc1ccccc1 | 0.15%
46 | CCOC(=O)c1c(N2C(=O)Nc3ccccc3N2O)n[nH]c1-c1cccc(OC)c1 | 13.1%
47 | CCOc1ccccc1N(C(=O)c1snc(C(N)=O)c1N)C(C(=O)NC1CCCC1)c1ccco1 (stereo not drawn) | -55%
48 | O=S(=O)(NC(=NCc1ccccc1)c1ccccc1F)c1ccccc1 | -10.3%
49 | O=C(CCc1ccccc1)Nc1nc2nc(-c3ccccc3)cc(=O)n2[nH]1 | 5.65%
50 | O=C1N/C(=C/c2ccc(N3CCOCC3)o2)C(=O)N1c1cccc(Cl)c1 | -12.1%
51 | Cc1ccc(N2CC(NC(=O)N3CCN(C(=O)c4ccco4)CC3)CC2=O)cc1 (stereo not drawn) | -52.6%
52 | COc1ccccc1CNC(=O)c1cc(S(=O)(=O)N2CCOCC2)cn1C | -0.737%
53 | O=C(NCC1CCCN1S(=O)(=O)c1cccs1)c1ccc([N+](=O)[O-])cc1 (stereo not drawn) | -55.2%
54 | O=S(=O)(c1cccc(COc2ccc(Cl)cc2Cl)c1)N1CCOCC1 | 3.46%
55 | O=C(NCC1CCCCC1)c1cc([N+](=O)[O-])ccc1N1CCOCC1 | -20.5%
56 | O=S(=O)(c1ccc(Cl)cc1)N1CCCC1c1nc(-c2cccc(Cl)c2)no1 (stereo not drawn) | 7.93%
57 | Cc1cccc(NC(=O)c2nc[nH]c2C(=O)N[C@@H](Cc2ccccc2)C(=O)OCc2ccccc2)c1 | 16.2%
58 | CCOc1ccc(/C=N/OCC(=O)Nc2cc(C)on2)cc1 | 12%
59 | CN(C(=O)c1cc([N+](=O)[O-])ccc1N1CCCC1)C1CCCCC1 | 1.07%
60 | NCCCC[C@H]1CNC(=S)N1CC1(c2ccccc2)CC1 | 12.2%
61 | Cc1cc(C)n2nc(SCC(=O)Nc3ccc(O)cc3)nc2n1 | 6.96%
62 | O=C(CSc1nc(C2CC2)nc2ccccc12)N1CCCCC1 | -27.7%
63 | Cc1ccc(NC(=O)CSc2nnc(C)n2CC2CCCO2)cc1 (stereo not drawn) | 0.753%
64 | COc1cccc(NC(=O)CSc2nnc(CNC(=O)c3ccccc3)n2C)c1 | -6.02%
65 | CCN1CCN(c2cc(C)c3cc(NC(=O)CCC(=O)N4CCN(c5ccccc5)CC4)ccc3n2)CC1 | 24.7%
66 | O=S(=O)(Nc1ccccc1N1CCCCC1)c1ccc(F)cc1F | 10.7%

Row | Structure (SMILES) | hERG current change (%, negative = inhibition) at 10uM
67 | N#Cc1nc(-c2ccco2)oc1N1CCN(c2cccc(Cl)c2)CC1 | -16.1%
68 | O=C(CNC(=O)c1ccco1)OCC(=O)c1cccc2ccccc12 | -2.33%
69 | CCCn1c2c(c(O)c(C(=O)Nc3ncccc3O)c1=O)CCCC2 | 2.9%
70 | CC(=O)c1ccc(S(=O)(=O)NCCCC(=O)NCCc2ccccn2)cc1 | 10%
71 | CSCCC(N=Cc1c(O)n(-c2ccc(Br)cc2)c(=O)[nH]c1=O)C(=O)OC(C)(C)C (stereo not drawn) | -12.4%
72 | COc1ccc(C(=O)Nc2c(C)csc2C(=O)O)cc1 | 6.73%
73 | Cc1cc(C)n(CC(=O)N2N=C(C(F)F)CC2(O)C(F)F)n1 (stereo not drawn) | 7.85%
74 | O=C(NCc1ccccc1)NC1CC2CCC(C1)N2Cc1ccco1 (stereo not drawn) | -17.1%
75 | CCNC(=O)Nc1ccc(OC)cc1OC | 25.9%
76 | COc1cc(/C=N/Nc2ccccc2[N+](=O)[O-])ccc1OC(=O)c1ccccc1F | -3.09%
77 | CCN(CC)CCNC(=O)c1cn(-c2ccccc2)nc1-c1cccs1.Cl | -69%
78 | O=C(CSc1ccccc1)NC1CCCCCCC1 | -6.88%
79 | Cc1ccc(N2CCN(C(=S)Nc3ccccc3)CC2)cc1 | 15.7%
80 | CC(=O)Nc1cccc(OCCCNC(=O)c2ccc(C(C)(C)C)cc2)c1 | -14.1%
81 | Cc1cccnc1NC(=S)Nc1ccc(Br)cc1Cl | 5.46%
82 | COc1ccc(CCN(C)C(=O)CSc2nc3ncc(Cl)cc3[nH]2)cc1OC | -10.7%
83 | Cc1cc2nc(-c3ccc4c(c3)CCC4)ccn2n1 | -2.72%
84 | COc1cccc(CNC(=O)CCC(=O)n2ncc3cc(C)ccc32)c1OC | 3.67%
85 | O=C(NC1(C(=O)NC2CCCCC2)CCCCC1)c1ccc2c(c1)OCO2 | 9.47%
86 | O=C1C2C(c3ccccc3)C=CC(c3ccccc3)C2C(=O)N1c1ccccn1 (stereo not drawn) | -3.56%
87 | COCCNC(=O)C(=O)Nc1cc2c3c(c1)CCC(=O)N3CCC2 | 43.4%
